# From PubChem BioAssay AID686979 (National Center for Advancing Translational Sciences (NCATS), 2013)
# About 50,000 (12%) of roughly 420,000 compounds were called active. This list was built around the results that the source calls inconclusive (neither active nor inactive); the mix of calls is not that of the screen. The call rests on the fitted dose curve; in most records, active means well fitted inhibition curve with a large enough effect; inconclusive means small, poorly fitted or top-dose-only effect; inactive means flat fitted curve, though single readings scatter. No potency is given beside an inconclusive call; the fits are too rough.
# Assay: qHTS for Inhibitors of human tyrosyl-DNA phosphodiesterase 1 (TDP1): qHTS in cells in presence of CPT; further: nearly all actives have a fitted effect of over 55% in size
# Conditions: chicken DT40 Tdp1-/-;hTDP1 cells + 20 nM CPT, ATP luminescence, 48 h; activity change, negative = growth inhibition: at 46.2 µM (top of the series) unless noted
# Procedure, shortened: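 Chicken DT40 Tdp1-/- cells stably complemented with human TDP1 were seeded at 400 cells/well in medium containing 20 nM camptothecin, exposed to pin-transferred compounds, and grown at 37 °C for at least 48 hr. Viability was read as ATP luminescence.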
# On the % scale 0 is the no-effect control and ±100 the full control effect; potency means the concentration at half of the fitted maximal effect; tags describe the fitted curve by direction and shape.
SMILES,Potency,"activity change, negative = growth inhibition"
Cn1c(C(=O)NCCCN2CCN(c3ccc(F)cc3)CC2)cc2c(=O)n(C)c3ccccc3c21,"inconclusive [inhibitor, single point]",–
COc1cc(CN2CCN(CC#Cc3ccccc3)CC2CCO)cc(OC)c1 (stereo unspecified),"inconclusive [inhibitor, single point]",–
Cc1c(/C=C/c2ccnc3ccccc23)ccc(N(C)C)c1C,"inconclusive [inhibitor, single point]",–
CO/N=C(/CNC(=O)c1cccc(Cl)c1)c1ccc(Cl)cc1,–,inactive: -19.4%
O=C(Nc1ccc2c(c1)OCCO2)C(C1CC1)N1CCN(c2ccc(C(F)(F)F)cn2)CC1 (stereo unspecified),"inconclusive [inhibitor, single point]",–
O=C(CSc1nnc(-c2ccccc2)c(-c2ccccc2)n1)NC1CCCC1,"inconclusive [inhibitor, single point]",–
O=C(O)C1CCCCC1C(=O)Nc1cccc(Br)c1 (stereo unspecified),–,inactive: -2.01%
Cc1c(C(=O)N2CCCC2)c(S(=O)(=O)N2CCN(c3ccccc3F)CC2)c(C)n1C,–,inactive: 3.57%
O=C(CN1C(=O)c2ccccc2C1=O)NCc1ccc(F)cc1,"inconclusive [inhibitor, single point]",–
CC(=O)Nc1cc(-c2ccc(N)nc2)cn2c(-c3cccc(C(F)(F)F)c3)cnc12,"inconclusive [inhibitor, single point]",–
CCOc1ccc(OCC)c(NS(=O)(=O)c2c(C(=O)N3CCCCCC3)c(C)n(C)c2C)c1,"inconclusive [inhibitor, single point]",–
COC(=O)c1ccc(NC(=O)COc2cccc3c2OC(C)(C)C3)cc1,–,inactive: -23.4%
Cc1ccc(C)c(OCc2cc(C(=O)NC3CCOC(C)(C)C3)no2)c1 (stereo unspecified),–,inactive: -29.1%
COc1ccc(C(=O)Nc2ccccc2C(=O)N/N=C/c2ccc(O)c(OC)c2)cc1,active: 16.4 µM,–
C=CCN1C(=O)c2ccc(C(=O)N3CCC(C(N)=O)CC3)cc2C1=O,–,inactive: 15.9%
COc1ccc(C2c3c(oc4ccc(C)cc4c3=O)C(=O)N2CCCN2CCOCC2)cc1OC (stereo unspecified),"inconclusive [inhibitor, single point]",–
O=C(NCc1ccc2c(c1)OCO2)C1CCN(Cc2cnn(-c3ccccc3)c2-n2cccc2)CC1,–,inactive: -23.1%
COc1ccc(C2=NS(=O)(=O)N(C)C(C(=O)N3C(C)CCCC3C)=C2)cc1 (stereo unspecified),"inconclusive [inhibitor, full curve, poor fit]",–
c1ccc(Cc2nn3c(C4COc5ccccc5O4)nnc3s2)cc1 (stereo unspecified),"inconclusive [inhibitor, single point]",–
Cc1cccc(NS(=O)(=O)c2cccc(C(=O)NCC3(N4CCOCC4)CCCCC3)c2)c1,"inconclusive [inhibitor, single point]",–
O=C(/C=C/c1ccc2c(c1)OCO2)Nc1nc2ccc(F)cc2s1,"inconclusive [inhibitor, full curve, poor fit]",–
OCCN1CN=C(Nc2nc3ccccc3s2)NC1,"inconclusive [inhibitor, partial curve, poor fit]",–
COc1cccc(N2CCN(C(=O)CN(c3cc(C)cc(C)c3)S(=O)(=O)c3c(C)noc3C)CC2)c1,"inconclusive [inhibitor, single point]",–
O=S(=O)(Nc1ccc(Br)cn1)c1ccc(Cl)s1,–,inactive: -15.1%

SMILES,Potency,"activity change, negative = growth inhibition"
CCc1ccc(NC(=O)Cn2c(=O)n(CCCCC(=O)NCCc3ccccc3)c(=O)c3ccccc32)cc1,–,inactive: -12.1%
COc1ccc(NC(=O)C2(C)CCN2Cc2ccc(OC(F)(F)F)cc2)cc1OC (stereo unspecified),active: 23.1 µM,–
CCc1nc2c(OCc3cc(Cl)cc(Cl)c3)cccn2c1N(C=O)Cc1ccccc1,active: 25.9 µM,–
Fc1ccc(-n2cc(-c3ccccc3)c3c(NCCc4ccccc4)ncnc32)cc1,"inconclusive [inhibitor, single point]",–
COc1ccc(C)cc1NC(=O)C1COc2ccccc2C1 (stereo unspecified),"inconclusive [inhibitor, single point]",–
COc1ccc(-c2ccc(/C=N/N3C(=O)C4C5C=CC(C6CC56)C4C3=O)o2)c([N+](=O)[O-])c1 (stereo unspecified),"inconclusive [inhibitor, single point]",–
Oc1ccc(/C=N/N=C/c2ccc(O)c(O)c2)cc1O,"inconclusive [inhibitor, single point]",–
Cn1c(/C(C#N)=C(\O)COc2ccc3ccccc3c2)nc2ccccc21,"inconclusive [inhibitor, single point]",–
COc1ccc(NC(=O)C2=CC(c3ccc4c(c3)OCO4)=NS(=O)(=O)N2C)cc1,"inconclusive [inhibitor, single point]",–
CCC(C)(C)NC(=O)C1CCN(S(=O)(=O)c2c(C)noc2/C=C/c2ccc(C)cc2)CC1,active: 23.1 µM,–
COc1cc(CNCCc2ccc(S(N)(=O)=O)cc2)ccc1OCC(=O)NC(C)(C)C,–,inactive: 0.228%
CCC(C)(C)NC(=O)C(C(C)C)N(CC1CCCO1)C(=O)CNS(=O)(=O)c1ccccc1 (stereo unspecified),–,inactive: 3.47%
COC(=O)c1c(-c2ccc(S(C)(=O)=O)cc2)sc2ccc(OC)cc12,"inconclusive [inhibitor, single point]",–
CCOC(=O)C1=CC[C@H]2c3c(c4ccccc4n3C)C(=O)C1N2C,–,inactive: -2.89%
O=C(CSc1ccccc1)NC1=NCCS1,"inconclusive [inhibitor, single point]",–
COc1cccc(CNC(=O)c2oc3c(c2C)-c2nn(Cc4cccc(Cl)c4)cc2CC3)c1,"inconclusive [inhibitor, single point]",–
CCCc1nn(-c2ccccc2)c2c1C(c1cccs1)C(C#N)=C(N)O2 (stereo unspecified),–,inactive: -5.16%
C#CCN1C(=O)S/C(=C\c2ccc(-c3ccc(C(=O)O)cc3C)o2)C1=O,–,inactive: -0.956%
Cc1cccc(NC(=O)c2nc[nH]c2C(=O)Nc2cc(Br)ccc2F)c1,active: 13 µM,–
c1ccc(-c2nnc3sc(-c4cc5ccccc5o4)nn23)cc1,active: 16.4 µM,–
CC1=C(C(=O)OCC(C)C)[C@]23C(=O)c4ccccc4[C@@]2(O1)OC(N)=C3C#N,–,inconclusive: -31.9% [inhibitor]
COCc1n[nH]c(=S)n1-c1cccc2ccccc12,–,inactive: 2.32%
O=C(CNC(=O)c1sc2ccccc2c1Cl)NCc1cccc(C(F)(F)F)c1,–,inactive: 0.145%
CCc1c(C)nc2cc(C)[nH]n2c1=O,–,inactive: -3.18%

SMILES,Potency,"activity change, negative = growth inhibition"
O=C(OC1C[C@@H]2CC3C[C@H](C1)N2CC3=O)c1c[nH]c2ccccc12 (stereo partly specified),"inconclusive [inhibitor, single point]",–
CCOC(=O)CN1C(=O)N[C@@H](c2cccc(C(F)(F)F)c2)[C@H](C(C)=O)[C@H]1C,–,inconclusive: -36.8% [inhibitor]
O=C(COC(=O)COc1ccc(Cl)cc1)Nc1ccc(N2CCOCC2)cc1,–,inactive: -1.22%
COc1ccc(-c2nnc(COc3ccc4ccccc4c3)o2)cc1OC,–,inactive: -16%
CCOc1ccc(CN(C)CC(=O)NCc2ccc(F)cc2)cc1,"inconclusive [inhibitor, partial curve]",–
CCc1ccc(C(C#N)=CC=Cc2ccccc2)cc1,"inconclusive [inhibitor, single point]",–
C/C(=C\C(=O)c1ccc(C)cc1)Nc1cccc(O)c1,active: 18.4 µM,–
Nc1nc(SCC(=O)Nc2ncc(C(F)(F)F)cc2Cl)n[nH]1,–,inactive: 0.6%
Cc1cccc(C)c1OCc1cc(C(=O)N2CCN(c3ccc(F)cc3)CC2)no1,"inconclusive [inhibitor, single point]",–
CC1(C)Cc2c(C#N)c(SCc3ccccc3)nc(N3CCOCC3)c2CO1,"inconclusive [inhibitor, single point]",–
CCc1cc2cc3c(cc2nc1SCC(=O)N1CCN(C(=O)c2ccco2)CC1)OCO3,"inconclusive [inhibitor, partial curve]",–
CC1=C(C(=O)OCc2ccccc2)C(c2ccccc2Cl)NC(=O)N1C (stereo unspecified),"inconclusive [inhibitor, single point]",–
CC(=O)c1c(C)[nH]c(C(=O)OCC(=O)NCc2ccccc2)c1C,"inconclusive [inhibitor, partial curve]",–
O=C(Nc1cccc(Cl)c1)OCc1cnc(Cl)s1,"inconclusive [inhibitor, single point]",–
Cc1cc(C)c(/C=C/c2onc(C)c2S(=O)(=O)N2CCC(C(=O)N(C)Cc3ccccc3)CC2)c(C)c1,"inconclusive [inhibitor, single point]",–
O=c1oc2ccccc2nc1/C=C(O)/C=C/c1ccc(F)cc1,active: 9.2 µM,–
CN(C)c1ncc2ncc(=O)n(CCC#N)c2n1,–,inactive: -18.7%
Cc1cccn2c(=O)c3cc(C(=O)NC4CCCC4)c(=N)n(CCCN4CCOCC4)c3nc12,"inconclusive [inhibitor, single point]",–
CCCNC(=O)COc1ccc2c(=O)c(Oc3ccccc3F)coc2c1,"inconclusive [inhibitor, partial curve]",–
CN1CCC(N(C)C(=O)c2ccccc2Nc2ccc(SC(F)F)cc2)CC1,–,inactive: -7.74%
CCOc1ccc(-c2cc(C(=O)N3CCCC3)c3ccccc3n2)cc1,"inconclusive [inhibitor, single point]",–
COc1cccc(C2c3[nH]c4ccccc4c3C[C@H]3C(=O)N(c4ccccc4C(=O)NCCCN4CCOCC4)C(=O)N23)c1 (stereo partly specified),active: 11.6 µM,–
COC(=O)c1ccc(NC(=O)c2c(C(=O)Nc3ccccc3)sc3nc(C)cc(=O)n23)cc1,–,inactive: -4.42%
